Experimental findings from article PMC4242493 are described below.

The list shows a part of the results. The list includes weakly bound sequences.

The experiment deals with MaxL homodimer (UniProt P61244). Description: universal protein-binding microarray (PBM). Conditions: PBS-based mixture, 10 nM His-tagged protein dimer, 2% milk, 200 ng/uL BSA, 50 ng/uL salmon testes DNA, 0.02% TX-100; detection with Alexa 488 anti-His …; high values mean tight binding; most listed sequences are background and not binding sites; double strand, one strand shown.
UniProt P61244, sequence (P61244 whole entry): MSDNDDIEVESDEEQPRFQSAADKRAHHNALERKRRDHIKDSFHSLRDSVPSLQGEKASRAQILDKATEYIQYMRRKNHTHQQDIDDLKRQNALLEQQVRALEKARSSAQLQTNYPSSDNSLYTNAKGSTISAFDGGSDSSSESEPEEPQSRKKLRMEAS
On to GAGGACAC, for which the binding signal (normalized occupancy) was found to be 0.0786.
Regarding ACTTTTTC, the binding signal (normalized occupancy) was determined as 0.0688.
As for AACCAAGC, the figure is 0.0742; as for CATTAACC, 0.0839.
With GCGCGGTA, the binding signal (normalized occupancy) came out at 0.0822.
Regarding AAACCTCG, the binding signal (normalized occupancy) turned out to be 0.0717.
Turning to AAAGGTGG, the binding signal (normalized occupancy) is 0.0743.
Consider ATTCCTAC, for which the binding signal (normalized occupancy) was 0.0861.
With CGTATATA, the binding signal (normalized occupancy) turned out to be 0.082.
The result for AGTCAGCC reads 0.0754; that for TTGGCAAA, 0.0791; that for AGACCCCG, 0.0739.
On to GGATCCTA, for which the binding signal (normalized occupancy) is 0.074.
Regarding AGCACTAG, the binding signal (normalized occupancy) was 0.0703.
As for AGGTTGGC, the figure is 0.0717; as for AGGAATCC, 0.0758.
Regarding AACGGTAG, the binding signal (normalized occupancy) turned out to be 0.0717.
As for CACGAGGC, the figure is 0.134.
In the case of TCGAAGCA, the binding signal (normalized occupancy) is 0.071.
As to TGCGGGAA, the binding signal (normalized occupancy) is 0.068.
Turning to GCGATCCC, the binding signal (normalized occupancy) was 0.0775.
On to AACTGTGG, for which the binding signal (normalized occupancy) was found to be 0.0757.
On to CAGGCATA, for which the binding signal (normalized occupancy) amounted to 0.0804.
As for CTGATAAA, the figure is 0.076.
Regarding AATTTAGT, the binding signal (normalized occupancy) came out at 0.072.
Regarding CGCCGGAA, the binding signal (normalized occupancy) is 0.0679.
As for ATTCGTAC, the binding signal (normalized occupancy) stood at 0.0786.
Regarding CTTCATCC, the binding signal (normalized occupancy) stood at 0.0814.
For ACTCGTCG, the binding signal (normalized occupancy) is 0.0723.
As to GTAAACTA, the binding signal (normalized occupancy) came to 0.0715.
As for AATATACC, the figure is 0.0884; as for CGCTGTCA, 0.0731.
Take CGTACCCA: the binding signal (normalized occupancy) amounted to 0.0851.
In the case of GATGGGGA, the binding signal (normalized occupancy) was 0.0824.
Consider CAACCTCA, for which the binding signal (normalized occupancy) is 0.0782.
For the sequence TACGGTAA, the binding signal (normalized occupancy) amounted to 0.0768.
As to AACCAGCA, the binding signal (normalized occupancy) was found to be 0.0771.
As for CACGACTG, the figure is 0.078; as for GCCCTTGA, 0.0674.
CATCGCAG: the binding signal (normalized occupancy) turned out to be 0.0737.
Consider CCGTGCCC, for which the binding signal (normalized occupancy) amounted to 0.0733.
As to CGGTATTC, the binding signal (normalized occupancy) was determined as 0.0743.
As for GGACTGAC, the figure is 0.0682; as for TACGGGAA, 0.0744.
As to AGAGTGGA, the binding signal (normalized occupancy) is 0.0795.
Take AGGGCGGC: the binding signal (normalized occupancy) is 0.0674.
As for ACGAGTCC, the binding signal (normalized occupancy) came out at 0.0751.
Take CATGGCAA: the binding signal (normalized occupancy) came out at 0.0963.
On to ATCAGAAA, for which the binding signal (normalized occupancy) came out at 0.0756.
Consider TATACCGA, for which the binding signal (normalized occupancy) was determined as 0.0807.
ATTAGGTC: the binding signal (normalized occupancy) was 0.0775.
As for AGAAAGGC, the figure is 0.0707; as for GCTGCCCA, 0.0703.
Turning to AGCCGATC, the binding signal (normalized occupancy) is 0.0729.
Regarding AATACTAG, the binding signal (normalized occupancy) is 0.0706.
Consider CCACCCTC, for which the binding signal (normalized occupancy) amounted to 0.0805.
On to AGCCAAAA, for which the binding signal (normalized occupancy) is 0.0679.
For the sequence CTGCTGCA, the binding signal (normalized occupancy) came out at 0.0717.
As for GTTAAAAA, the figure is 0.0784; as for CAATGCGC, 0.0788; as for CAGTCACG, 0.0862.
Turning to AAGTAGCC, the binding signal (normalized occupancy) turned out to be 0.0758.
As for TCAACTCA, the binding signal (normalized occupancy) was found to be 0.0757.
As to CTTTTACA, the binding signal (normalized occupancy) was determined as 0.0823.
Turning to AGTAACAC, the binding signal (normalized occupancy) stood at 0.0787.
As to TACGCACA, the binding signal (normalized occupancy) was 0.0789.
GGCATCTA: the binding signal (normalized occupancy) stood at 0.0787.
For GGCGCTTA, the binding signal (normalized occupancy) is 0.0693.
As for AGTTGTGC, the binding signal (normalized occupancy) is 0.0733.
In the case of AGTCACGC, the binding signal (normalized occupancy) was 0.0989.
Turning to AAAGAATC, the binding signal (normalized occupancy) worked out at 0.0771.
ACGTTCCG: the binding signal (normalized occupancy) was 0.0739.
With GTCACATA, the binding signal (normalized occupancy) amounted to 0.0806.
As for CGTGAGTA, the figure is 0.0788; as for CAGAGGTC, 0.075; as for GCATGAGA, 0.0947.
As for TAGCTCGA, the binding signal (normalized occupancy) worked out at 0.0723.
AAGTCGCT: the binding signal (normalized occupancy) stood at 0.0684.
With AGCTTTAA, the binding signal (normalized occupancy) came out at 0.0676.
As to AGAGGCTA, the binding signal (normalized occupancy) was found to be 0.0745.
Regarding AGGACAGG, the binding signal (normalized occupancy) was determined as 0.0726.
Consider CGCGTCAA, for which the binding signal (normalized occupancy) worked out at 0.0723.
Consider CGCAATGA, for which the binding signal (normalized occupancy) stood at 0.0773.
Take ACATATAG: the binding signal (normalized occupancy) stood at 0.0847.
On to CAAAGTGA, for which the binding signal (normalized occupancy) is 0.0695.
On to CTACCTAA, for which the binding signal (normalized occupancy) came out at 0.0774.
As for TAGATCAA, the figure is 0.0749; as for CGGATCAA, 0.0731; as for CCGGAGGC, 0.0637.
As for CCCGAGAG, the figure is 0.0685; as for AGCGACTG, 0.0704; as for CGTTAACG, 0.079.
Turning to ATATACCA, the binding signal (normalized occupancy) was 0.0951.
As for ACATGATA, the binding signal (normalized occupancy) amounted to 0.0928.
With GGGCGAGA, the binding signal (normalized occupancy) was found to be 0.0729.
Regarding GTTATGTA, the binding signal (normalized occupancy) was 0.0821.
Consider ATCTTGGA, for which the binding signal (normalized occupancy) came out at 0.0766.
Consider TCGCGCGA, for which the binding signal (normalized occupancy) is 0.0803.
In the case of AGTTCTAC, the binding signal (normalized occupancy) worked out at 0.0751.
As for GGGAGGCA, the figure is 0.0747; as for GTCCCTAA, 0.0752; as for AATCTTGA, 0.0791.
Consider ACTACTCC, for which the binding signal (normalized occupancy) is 0.073.
Regarding CATCATCG, the binding signal (normalized occupancy) was 0.0852.
Turning to AGACCATG, the binding signal (normalized occupancy) came out at 0.0878.
On to CTGAATTC, for which the binding signal (normalized occupancy) worked out at 0.0723.
For the sequence CGCTAACC, the binding signal (normalized occupancy) came out at 0.0691.
As for GATAACGA, the figure is 0.0818; as for CAAGCCAA, 0.0745.
CAGTTCCC: the binding signal (normalized occupancy) is 0.0686.
The result for AAATGTCT reads 0.0763; that for AATATGAT, 0.0849.
As to AATGACTG, the binding signal (normalized occupancy) was found to be 0.0771.
As for CAGTCTCC, the binding signal (normalized occupancy) amounted to 0.0696.
The result for GCCCAAGA reads 0.0685.
On to GATCTAGC, for which the binding signal (normalized occupancy) is 0.07.
For the sequence CCCAGAGA, the binding signal (normalized occupancy) turned out to be 0.0703.
Turning to GTGATTGA, the binding signal (normalized occupancy) stood at 0.0802.
Consider ATGTGTGG, for which the binding signal (normalized occupancy) is 0.0891.
As for CTGCCCTC, the binding signal (normalized occupancy) came out at 0.0714.
The result for AGGAGACT reads 0.073; that for ATGAGCTG, 0.074; that for ACGGACAT, 0.0801.
Consider AAGGAGCT, for which the binding signal (normalized occupancy) was 0.0694.
The result for CGACGGCG reads 0.0722; that for CTGAATTA, 0.0751; that for ACTTGACA, 0.0819.
As for CTGCTTAA, the figure is 0.0703.
As to GGAAAAAC, the binding signal (normalized occupancy) was determined as 0.0727.
On to AATGAAGA, for which the binding signal (normalized occupancy) stood at 0.0792.
For AATTCCCC, the binding signal (normalized occupancy) worked out at 0.078.
CAGAGGCA: the binding signal (normalized occupancy) came to 0.0697.
On to GAGATGCC, for which the binding signal (normalized occupancy) is 0.0786.
As for AGAGTAGC, the figure is 0.0731; as for AAGATCTG, 0.077.
As to GTTTATTA, the binding signal (normalized occupancy) is 0.0733.
Turning to CAGCCTAA, the binding signal (normalized occupancy) stood at 0.0729.
Take GTCAAGAC: the binding signal (normalized occupancy) was 0.0749.
ATGAGAAA: the binding signal (normalized occupancy) was found to be 0.0743.
As for GAATTTAA, the binding signal (normalized occupancy) is 0.0702.
With ACAATATG, the binding signal (normalized occupancy) came to 0.0881.
CAATGGTA: the binding signal (normalized occupancy) turned out to be 0.0758.
Consider GTTGGTCA, for which the binding signal (normalized occupancy) stood at 0.0793.
As to AGCGATCA, the binding signal (normalized occupancy) worked out at 0.0717.
Consider AATAGGCA, for which the binding signal (normalized occupancy) worked out at 0.0804.
The result for ATGCGTGG reads 0.106; that for ATGACTCA, 0.0787; that for CTGGATAA, 0.0734.
As for AAGGCCCT, the figure is 0.072; as for TGAGCTCA, 0.0709.
Consider ACTTAGCC, for which the binding signal (normalized occupancy) amounted to 0.0726.
Consider AGGTTAAC, for which the binding signal (normalized occupancy) worked out at 0.0744.
For the sequence GTGACTGA, the binding signal (normalized occupancy) amounted to 0.0789.
On to CACTTAAA, for which the binding signal (normalized occupancy) is 0.0743.
Take AGCTGCGG: the binding signal (normalized occupancy) amounted to 0.0673.
As to ACGCACAC, the binding signal (normalized occupancy) was found to be 0.0922.
Consider CAAGCCGA, for which the binding signal (normalized occupancy) was found to be 0.0713.
CCTCCCGC: the binding signal (normalized occupancy) is 0.076.
As for GCACATGC, the binding signal (normalized occupancy) came to 0.159.
Consider ACGTTCTA, for which the binding signal (normalized occupancy) worked out at 0.0776.
Turning to CAGGTGGC, the binding signal (normalized occupancy) turned out to be 0.0954.
Turning to GGACTACA, the binding signal (normalized occupancy) was 0.0806.
Consider GTAGGACA, for which the binding signal (normalized occupancy) was determined as 0.0708.
On to ACGTGTCT, for which the binding signal (normalized occupancy) stood at 0.0997.
Consider CCTTCGGC, for which the binding signal (normalized occupancy) worked out at 0.0648.
The result for CACACCGG reads 0.081; that for CTGCAATC, 0.075.
For AACCCAAA, the binding signal (normalized occupancy) came to 0.0704.
As for GGTATTAA, the figure is 0.0775; as for AACCAGCG, 0.0716.
Regarding CATCCGAC, the binding signal (normalized occupancy) worked out at 0.075.
With AACCCGCG, the binding signal (normalized occupancy) was 0.074.
